# Read counts are not given, so values of variants with three or more changes are uncertain.
# B1: LINE1-mini (parent)
# chain: GGCAGAGCUCAACACAGCGUGGCAAAGUGGCUGUGGCUAGACUGCC
# Variants of: B1
# Test: self-cleavage, relative activity (ratio to wild type); higher = more cleavage; in vitro, sequencing; the parent is a self-cleaving ribozyme
row,Variant,self-cleavage
1,GGCAGAGCUCAACACAGUGUGGGUUAGUGGCUGUAUCUAGAUUGCC,0.06
2,GGCAGAGCUCAACACAGAGGGCCAAAGUGGCUGUCGCUAGACUGCC,0.05
3,GGCAGAGCUCAACACAGGGUGGCGAAGUGGCUGUGGAUAGACUUCC,0.14
4,GGCAGAGCUCAACACAGGGUGGCAAAGUGGAUGUUGCUAGACUGCA,0.04
5,GGCAGAGCUCAACACAGGGUGGCAAAGUGGCUGUGGUUAGCCUGCC,0.03
6,GGCAGAGCUCAACACAGUGUGGCACAGUGGCUGGGGCUACACUGCC,0.02
7,GGCAGAGCUCAACACAGAGUGGCAAAGUGGCUGUGGCUAGACCGGC,0.03
8,GGCAGAGCUCAACACAGGGUGGCAAAGUGGCUGAGGCUCGACUGCC,0.01
9,GGCAGAGCUCAACACAGAGUGGCAAAGUGGCUGUGUCUUGACUGCC,0.13
10,GGCAGAGCUCAACACAGAGCGUCAAAGUGGCUGUGUCUAGACUGCC,0.05
11,GGCAGAGCUCAACACAGGGUGGCAAAGUUGCUGUGGCUACACUGCC,0.01
12,GGCAGAGCUCAACACAGGGUGUCAAAGUUGCUGUGGCUAUUCUGCC,0.23
13,GGCAGAGCUCAACACAGUGUGUUAAAGUGGCUGUGGCUAGAAUGCC,0.03
14,GGCAGAGCUCAACACAGGGUGGGAAAGUGGCUGUGGCUAGCCUGCC,0.02
15,GGCAGAGCUCAACACAGGGUGGCAAGGUGGCUGUGACUAGACUGCC,0.04
16,GGCAGAGCUCAACACAGUGUGGCAGAGUGGCUUUGGCUAGACUGCC,0.02
17,GGCAGAGCUCAACACAGGGUCGCAAAGUGGCUGUGGCUAGACAGCC,0.02
18,GGCAGAGCUCAACACAGAGUGGCAAAGUGGCUGUGGCUAGACUAAG,0.03
19,GGCAGAGCUCAACACAGGGUGGAAAAGUGACUGUGGCUAGACUGCC,1.2
20,GGCAGAGCUCAACACAGGGUCGUAAAGUGGCUGUGGCGAGACUGCC,0.03
21,GGCAGAGCUCAACACAGGGUGGCAAAGUGGCUGUGACUGGACUGCC,0.07
22,GGCAGAGCUCAACACAGGGUCGCAAAGUGGCUAUGGCUAGACUGCC,0.02
23,GGCAGAGCUCAACACAGUGUGGCAAAGUGGCUGUGGGUAGACUGGC,0.02

row,Variant,self-cleavage
1,GGCAGAGCUCAACACAGUGUUGCAAAGUGGCUGUAGCUAGACUGCC,0.07
2,GGCAGAGCUCAACACAGGUUCGCAAAGUGGCUGUGGCUGGAAUGCC,0.06
3,GGCAGAGCUCAACACAGGGUUGCAGAGUGGCUGUGGCUAGUCAGCA,0.02
4,GGCAGAGCUCAACACAGGGUGGCAGAAUGACUGUGCCUAGACUGCC,0.04
5,GGCAGAGCUCAACACAGGUUGGCAAAGUGGCUGUGGAUAGACUGCC,0.04
6,GGCAGAGCUCAACACAGGGUCGCAAAGUGGCUGUGGCUAUACUGUC,0.11
7,GGCAGAGCUCAACACAGGGUAGCAAAGUGGCUAUGGCUAGACUGCC,0.03
8,GGCAGAGCUCAACACAGUUUGGUAAAGUGGUUGUGGCUAGACUGCC,0.06
9,GGCAGAGCUCAACACAGGGUGCCAAACUGGCUGUGACUAGACUGCC,0.17
10,GGCAGAGCUCAACACAGGGCGGCAAACUGGCUGUGGCUAGACUGCC,0.07
11,GGCAGAGCUCAACACAGUCUGUCAAAUUGGCUGUGGCUAGACUGCC,0.44
12,GGCAGAGCUCAACACAGUGUGGCCAUGUGGCUGUGGCUAGACUGCC,0.27
13,GGCAGAGCUCAACACAGAGGGGCAUAGUGGCUGUGGCUAGACUGCC,0.28
14,GGCAGAGCUCAACACAGAGUGGCAAAGUGGCUGUGACUAGACUGCU,0.12
15,GGCAGAGCUCAACACAGGUUGGCAAAGUCGCUGUGGCUAGACUGCC,0.12
16,GGCAGAGCUCAACACAGUGUGGCAAAAAGGCGGUGGCUAGACUGCC,0.05
17,GGCAGAGCUCAACACAGUGUGCCAAAGUGGCUUUAGCUAGACUGCC,0.03
18,GGCAGAGCUCAACACAGGGUGGCAAAGUGGCUGUGUCCAGACGGCC,0
19,GGCAGAGCUCAACACAGGGGGGCAAAGUGGCUGUGGCUAUACUGCC,0.01
20,GGCAGAGCUCAACACAGUGUGGCUAAGUGGCUGUGGCUAGACUGCU,0.05
21,GGCAGAGCUCAACACAGAGUGGCAAAGUGGCUGCGGUUAGACUGCC,0
22,GGCAGAGCUCAACACAGGGGGGCAAAAUGGCUGUGGCUAGACUGCC,0.03
23,GGCAGAGCUCAACACAGUGUGUCAAAGUUGCUGUGGGUAGACUGCC,0.01

row,Variant,self-cleavage
1,GGCAGAGCUCAACACAGAGCGGCAAUGUGGCUAUGGCUAGACUGCC,0
2,GGCAGAGCUCAACACAGGGUGGCAAAGUGGCUGUGACCAGACUGCC,0.04
3,GGCAGAGCUCAACACAGAGUGGCAAAGUGGCGGUGGCUAGAUUGUC,0.01
4,GGCAGAGCUCAACACAGAGUGGCAAAGUGGCUGUGGCUACACUGAC,0.01
5,GGCAGAGCUCAACACAGGGUGGAAAAGUAGCUGUGGCUAGACUGGC,0.21
6,GGCAGAGCUCAACACAGGGCGGCAAAGUGGCUGUGUCUAGACUGCC,0.04
7,GGCAGAGCUCAACACAGGGUGGCAAAGUGGCUGUGGGUGGACUGCC,0.03
8,GGCAGAGCUCAACACAGUGUGGCCAACUGGCUGUGGCUAGACUGCC,0.07
9,GGCAGAGCUCAACACAGUUUGGCAAAGUGGCUGUGGCUAGAAUGCC,0.02
10,GGCAGAGCUCAACACAGUGUGCCAAAGUGGCUGUGGCUUGACUGCC,0.65
11,GGCAGAGCUCAACACAGAGGGUCAAAGUGGCUGUGGCUAGACUGCC,0.11
12,GGCAGAGCUCAACACAGGGUGUCAAACUGGCUGUGGCUAGACUGUG,0.06
13,GGCAGAGCUCAACACAGUGUGGCGAAGUGGCUGUGGCUACACUGCC,0.05
14,GGCAGAGCUCAACACAGUGUGGCGAAGUGGCUGUGGCUAUACUGCC,0.12
15,GGCAGAGCUCAACACAGUGUGGCAAAACGGCAGUGGCAAGACUGCC,0.08
16,GGCAGAGCUCAACACAGGGUGGCAGAGUGGCUUUGGCUAGACUGCC,0.02
17,GGCAGAGCUCAACACAGGGUGGCAAUGUGGCUGUGGCUAGACUGAU,0.03
18,GGCAGAGCUCAACACAGUGUGGUAAAGUGGCUGAGGCUAGACUGCC,0.09
19,GGCAGAGCUCAACACAGUGUGGCAAGGUGGGUGUGCCUAGACUGCC,0.01
20,GGCAGAGCUCAACACAGUGUGGAAAAGUGGGUGUGGCUAGACUGCC,0.08
21,GGCAGAGCUCAACACAGAGUGGCAAAGUGGCUGCGGCUAGACUGAC,0.02
22,GGCAGAGCUCAACACAGUGUGGCAAUGUCGCUGUGGCUAGGCUGCC,0.55
23,GGCAGAGCUCAACACAGGGUGGCCAAGUGGUUGUGGAUAGACUGCC,0.02

row,Variant,self-cleavage
1,GGCAGAGCUCAACACAGUGUGGCAAAGUGGCUGUGGCUAGACUGGU,0.13
2,GGCAGAGCUCAACACAGUGUGGCAGAGUGGCUGUGGCCAUACAGCC,0.02
3,GGCAGAGCUCAACACAGGGUGGCACAGUGGCUGUGGGUAGUCUGCC,0.01
4,GGCAGAGCUCAACACAGUUUGGCAAAGUGGCUGUGGCUUGACUGCC,0.24
5,GGCAGAGCUCAACACAGUUUGGCAAAGUGGCUGUGGCUCGACUGCC,0.23
6,GGCAGAGCUCAACACAGGAUGGCAAAGUCGCUGUGGCUAGACUGCC,0.85
7,GGCAGAGCUCAACACAGAGUGGCAAAGUGGCUGUGGCUAUAGUGCC,0.03
8,GGCAGAGCUCAACACAGUGUUGCAAAGAGGCUGUGGCUAGACUGCC,0.46
9,GGCAGAGCUCAACACAGUGUGGCAAAGUGGCUGUGGCUAGAAUUCC,0.11
10,GGCAGAGCUCAACACAGUAUGGCAAAGUGACUGUGGCUAGACUGCC,1.18
11,GGCAGAGCUCAACACAGGGUGGCCACGUGGUGGUGGCUAGACUGCC,0.01
12,GGCAGAGCUCAACACAGUGUGCCCAAGUGGCUGUGGCUAGACUGCC,0.1
13,GGCAGAGCUCAACACAGAGUGGCAAAGGGGCUGUGGCUAGACGGCG,0.02
14,GGCAGAGCUCAACACAGGGAGGCAAAGUGGCUGUGGGUAGACUGCG,0.02
15,GGCAGAGCUCAACACAGAGUGGCAAAGCGGCAGUGGCUAGACUGCU,0.04
16,GGCAGAGCUCAACACAGGGUGGCAAAGUGGCCGUGGCUGGACUGCC,0.15
17,GGCAGAGCUCAACACAGAGAGGCAAUGUAGCUGUGGCUAGACUACC,0.12
18,GGCAGAGCUCAACACAGAGCGGCAAAGGGGCUGUGGCUAGACUGCC,0.41
19,GGCAGAGCUCAACACAGUGUGGUAAAGUGGCUGUCGCUAGACUGCC,0.01
20,GGCAGAGCUCAACACAGGGUGGCAAAGUGGCUGUGGCCAGACAGCC,0.01
21,GGCAGAGCUCAACACAGGGUUGCAAAGCGGCUGUGGCGCGACUGCC,0.01
22,GGCAGAGCUCAACACAGGGUGGCAACGUGGCUGUGUCUAGAGUGCC,0.01
23,GGCAGAGCUCAACACAGAGGGGCAAAGUGGUUGUGGCUAGACUGCU,0

row,Variant,self-cleavage
1,GGCAGAGCUCAACACAGGGAGGCAAAGUGGCUGUGGUUAGACUGCC,0.04
2,GGCAGAGCUCAACACAGGGUGACAAAGUGGCUGUAGCUAGACUGCC,0.04
3,GGCAGAGCUCAACACAGAGUGGCAAAGUGGCUUUGGCUAGACUCCC,0.03
4,GGCAGAGCUCAACACAGUGUGGAAAAGUGGCUGUGGCUAGACUCCC,0.47
5,GGCAGAGCUCAACACAGUGUGGCAACCUGGCUGUGGCUACACUGCC,0.05
6,GGCAGAGCUCAACACAGAGUGGCAAAGUGGCUCUGGCUAGACUGCG,0.04
7,GGCAGAGCUCAACACAGUGUGGAAAAUUGGCUGUGGCUAGACUGCC,1.06
8,GGCAGAGCUCAACACAGAGGGGCAAAGCGGCUGUGGCUAGACUGCC,0.33
9,GGCAGAGCUCAACACAGUGUGGCAAAGUGGGUGUGGCUAGACUGAC,0.11
10,GGCAGAGCUCAACACAGGGAGGCAGAGUGGCUGUGGCUAGACUGCC,0.04
11,GGCAGAGCUCAACACAGUGUGGUAAAGUGUCUGUGGCUAGACUGCC,0.15
12,GGCAGAGCUCAACACAGGGUGGCAAAGUGUCUGUGGUUAGACUGCC,0.07
13,GGCAGAGCUCAACACAGAGUGGCAAAGUGGCAGUGGCUAGACUGUC,0
14,GGCAGAGCUCAACACAGUGUGUCAAAGUGGCUGUUGCUAGACUGCA,0.03
15,GGCAGAGCUCAACACAGUGUGGCAAAGUGGCUGUGGAUAGACUCCC,0.02
16,GGCAGAGCUCAACACAGUAUGGCAAAGUGGCUGUGACUAGAUAGCC,0.01
17,GGCAGAGCUCAACACAGGGGGGCAAAGUGGCUGUGGCGAGACUGCC,0
18,GGCAGAGCUCAACACAGGGUGGCAAGUUGGCCGUGGCUAGACUGCC,0.02
19,GGCAGAGCUCAACACAGGGUUGCGAAGUGGCUGUGGCUAGACUGCC,0.39
20,GGCAGAGCUCAACACAGUCUGGCAAAGUGGCUGUGGCUAGACAGCC,0.06

# Reference: the RNAGym collection of RNA variant scans (doi:10.7554/elife.90254)
